Experimental data taken from patent US8642807B2, “Crystallized diacetylenic indicator compounds and methods of preparing the compounds” (Temptime Corporation, priority 2007, dated 2014).
This continues a long series; more values of the same kind are listed elsewhere.

Assay: Solubility test: ability of each solvent to dissolve at least 1 percent by weight at a process temperature near its boiling point (Example 1)
Type: physicochemical
From the text: This example illustrates solvent mapping, testing and solubility region definition for a diacetylenic monomer for which new solvents and solubility information are desired, namely 2,4-hexadiyn-1,6-bis(ethylurea) and for which reliable solubility parameter information is not available. In this example, solubility points are mapped for each of a number of representative samples of a wide range of solvents of different chemical types and physicochemical characteristics, according to their solubility parameters. The solubility points of the representative solvents (filled squares) are mapped on a plot of hydrogen bonding (δH), on the Y-axis, versus polar parameters (δP), on the X-axis, generating a map such as that shown in FIG. 4. Also shown in FIG. 4 are solubility points for solvent systems comprising 25 percent by weight water/solvent mixtures (unfilled squares).
Each solvent is tested for its ability to dissolve at least 1 percent by weight 2,4-hexadiyn-1,6-bis(ethylurea) at a temperature not more than 5° C. above the boiling point of the solvent. Because the boiling points of the solvents tested vary widely, ranging from 56° C. to 189° C. the solvents are processed in batches at temperatures of 60, 75, 82, and 90° C., respectively. The process temperature desirably is not greater than 4 to 5° C. above a given solvent's boiling point.
Some exemplary solubility data obtainable for 2,4-hexadiyn-1,6-bis(ethylurea) from the above-described solubility test with the solvents indicated, are set forth in Table 1 below along with solubility parameter information for the solvents. Also included in Table 1 are data regarding the 25 percent by weight water/solvent mixtures.

Measured: KE soluble at 1% wt?

CCNC(=O)NCC#CC#CCNC(=O)NCC [KE, 2,4-hexadiyn-1,6-bis(ethylurea)]
Yes: solvent 1-Propanol, process T 82 °C | solvent 2-Propanol (IPA), process T 82 °C | solvent 25% Water/Acetone, process T 60 °C | solvent 25% Water/DMF, process T 90 °C | solvent 25% Water/DMSO, process T 90 °C | solvent 25% Water/Ethanol, process T 82 °C | solvent 25% Water/IPA, process T 82 °C | solvent 25% Water/acetic acid, process T 90 °C | solvent 25% Water/formic acid, process T 90 °C | solvent Acetic acid, process T 90 °C | solvent DMF, process T 90 °C | solvent DMSO, process T 90 °C | solvent Ethylene glycol, process T 90 °C | solvent Formic acid, process T 90 °C | solvent Methanol, process T 60 °C
No: solvent 1,2-Dichlorobenzene, process T 90 °C | solvent Acetone, process T 60 °C | solvent Acetonitrile, process T 82 °C | solvent Cellosolve ® acetate, process T 90 °C | solvent Chloroform, process T 60 °C | solvent Cyclohexane, process T 82 °C | solvent E3EP (ethyl 3-ethoxypropionate), process T 90 °C | solvent Glycerol, process T 90 °C | solvent Toluene, process T 90 °C | solvent Water, process T 90 °C
Sparingly: solvent Pyridine, process T 90 °C
